PMC11240954 (International Journal of Molecular Sciences, 2024)

Assay: in vitro
Procedure: Ltd.) at 37 °C with 5% CO2 enrichment.
The 3-(4,5-dimethylthiazol-2-yl)-2,5-diphenyltetrazolium bromide assay (MTT assay) was used to assess the cytotoxicity of compounds against the viral host cells (MDCK, Raw 246.7, or Vero). This assay relies on the reduction of the yellow MTT compound to a dark blue formazan product by viable and metabolically active cells. Viral host cells were cultured in 96-well plates and incubated at 37 °C in a 5% CO2 atmosphere and then treated with various concentrations of the test compounds together with further incubation for 24 h. After incubation, 100 μL of a 5 mg/mL MTT solution was added to each well and incubated for 2–4 h at 37 °C. The supernatant was then discarded, and 100 μL of 100% DMSO was added to dissolve the formazan salts with vigorous agitation for 10 min at room temperature. The absorbance at 570 nm was measured along with 630 nm as a reference or background control using a spectrophotometer. Cytotoxicity was determined by comparing the absorbance values in the test and control wells expressed as a percentage. A total of 100 μL DMSO was used for the negative control, while 100 μL of culture medium represented the positive control. All experiments were repeated three times, and the mean values with standard error were reported. Non-linear regression analysis was performed using GraphPad Prism software to determine the CC50 (concentration at which 50% of cells are killed).

[1] = African green monkey, CC50 Human Adenovirus-5/Vero
[2] = mouse, CC50 Murine Norovirus-1/Raw 246.7

| Structure (SMILES) | CC50 [1] [µM] | CC50 [2] [µM] |
| --- | --- | --- |
| NCCNC(=O)C(Cc1c[nH]c2ccccc12)NC(=O)c1cc(-c2ccccc2-c2ccccc2)ccc1N (centres unmarked) [Sau-22] | 15.2 | 9.3 |
| N=C(N)NCCNC(=O)C(Cc1ccccc1)NC(=O)c1cc(Br)ccc1NC(=O)c1ccc2ccccc2c1 (centres unmarked) [compound 1091] | 105 | 45.6 |
| NCCNC(=O)C(Cc1c[nH]c2ccccc12)NC(=O)c1cc(-c2ccc3ccccc3c2)ccc1N (centres unmarked) [compound 610] | 16.7 | 13.9 |
| NCCN=C(NCCN)NCCNC(=O)C(Cc1c[nH]c2ccccc12)NC(=O)c1cc(Br)ccc1NC(=O)c1ccc2ccccc2c1 (centres unmarked) [compound 1083] | 485 | 75.5 |
| NCCNC(=Nc1ccccc1)NCCNC(=O)C(Cc1c[nH]c2ccccc12)NC(=O)c1cc(Br)ccc1NC(=O)c1ccc2ccccc2c1 (centres unmarked) [compound 758] | 152 | 16.2 |
| NCCNC(=Nc1ccccc1)NCCNC(=O)C(Cc1ccccc1)NC(=O)c1cc(Br)ccc1NC(=O)c1ccc2ccccc2c1 (centres unmarked) [compound 1096] | 57.3 | 4.7 |
| NCCCCC(N)C(=O)NCCNC(=O)C(Cc1c[nH]c2ccccc12)NC(=O)c1cc(Br)ccc1NC(=O)c1ccc2ccccc2c1 (centres unmarked) [NAPL] | 96.1 | 40 |
